In all, about 33,000 sequences were measured (“E-score (dimensionless, -0.5 to 0.5)”: median about -0.058, highest 2% from about 0.35 on). The list shows a part of the results.
system: MvaT; assay: PBM 8-mer E-score (mean of HK and ME arrays) (E-score (dimensionless, -0.5 to 0.5)); higher = stronger relative binding preference; most listed sequences are background and not binding sites
Procedure, shortened: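 Full-length P. aeruginosa MvaT carrying an N-terminal glutathione S-transferase tag was tested by protein binding microarray following a previously described protocol. Two universal double-stranded 60-mer arrays, ME and HK, were used, each with a constant 25-mer primer region and a variable 35-mer region covering all 8-mers. The rank-based E-score is the mean of the two arrays, parsed with a custom script. Its range runs from -0.5 to 0.5 for each 8-mer.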

Compared with GTGTTCCA, CGGCCCTA is lower in “PBM 8-mer E-score” value: -0.00277 for the first, -0.203 for the second.

Compared with GCCGCTCA, GTAAACTA is higher in “PBM 8-mer E-score” value: -0.105 for the first, 0.233 for the second.

Compared with GCACCAGC, ACCCTCAG is higher in “PBM 8-mer E-score” value: -0.17 for the first, -0.135 for the second.

First: GCGAGCGA
Second: AATGTGGC
The “PBM 8-mer E-score” value of the first is lower: -0.0777 for the first, 0.0102 for the second.

Going from AAGATACT to ATCGCATG, the “PBM 8-mer E-score” value falls from 0.157 to -0.0639.

Compared with ATAATGTG, ACGACAGC is lower in “PBM 8-mer E-score” value: 0.268 for the first, -0.215 for the second.

First: AATAGATT
Second: CGATTAAG
The “PBM 8-mer E-score” value of the first is higher: 0.251 for the first, 0.0954 for the second.

First: CACCCTAG
Second: CGTATAAG
The “PBM 8-mer E-score” value of the first is lower: -0.0575 for the first, 0.147 for the second.

Going from ATCTGACG to GCACTTCA, the “PBM 8-mer E-score” value falls from -0.0841 to -0.102.

First: CCTCGAAC
Second: CTCTCGGA
The “PBM 8-mer E-score” value of the first is higher: -0.0311 for the first, -0.147 for the second.

Compared with TCTGAAAA, CATATAAA is higher in “PBM 8-mer E-score” value: 0.0184 for the first, 0.365 for the second.

Compared with GAGCCACC, ATGCAAAA is higher in “PBM 8-mer E-score” value: -0.174 for the first, 0.0909 for the second.

Going from CATCACCG to CGGATCTC, the “PBM 8-mer E-score” value rises from -0.262 to -0.121.

Going from CCCATCCG to CATTATGC, the “PBM 8-mer E-score” value rises from -0.148 to 0.191.

First: CCCATATA
Second: GGGACACA
The “PBM 8-mer E-score” value of the first is higher: 0.196 for the first, -0.103 for the second.

Compared with AGTGAAAC, GAGTTACA is higher in “PBM 8-mer E-score” value: 0.102 for the first, 0.104 for the second.

Going from ATATTCTC to CATATGAC, the “PBM 8-mer E-score” value falls from 0.286 to 0.101.

Going from ATTTCTTG to ACAAGGTC, the “PBM 8-mer E-score” value falls from 0.0491 to -0.0848.

First: ATCCATCC
Second: GACGCAAC
The “PBM 8-mer E-score” value of the first is lower: -0.15 for the first, -0.061 for the second.

First: AAGTCCAT
Second: GTAAGCCA
The “PBM 8-mer E-score” value of the first is higher: -0.0121 for the first, -0.174 for the second.

Going from CATCATGC to AAGCGGAA, the “PBM 8-mer E-score” value rises from -0.12 to -0.021.

Compared with GCGGAGAA, TGTTATAA is higher in “PBM 8-mer E-score” value: -0.176 for the first, 0.437 for the second.

First: AATGGACA
Second: ATTCACGG
The “PBM 8-mer E-score” value of the first is higher: 0.0887 for the first, -0.07 for the second.

Going from AGCTAGTG to GTTAAGAA, the “PBM 8-mer E-score” value falls from -0.0269 to -0.103.

Going from CCTCGTGA to AACCCAAT, the “PBM 8-mer E-score” value rises from -0.253 to 0.0936.

Going from CAACCCAC to CCCTGTAC, the “PBM 8-mer E-score” value falls from -0.0308 to -0.157.

First: CCGACAAA
Second: CCGAGAAG
The “PBM 8-mer E-score” value of the first is higher: 0.0087 for the first, -0.244 for the second.

Compared with AGTTCACG, CCTGGCGC is lower in “PBM 8-mer E-score” value: 0.0778 for the first, -0.207 for the second.

First: CAACTCCC
Second: CGCTTCGC
The “PBM 8-mer E-score” value of the first is higher: -0.128 for the first, -0.241 for the second.

Going from AAGTTCAC to ATAGTGTC, the “PBM 8-mer E-score” value falls from 0.229 to 0.193.

First: CGGTGAGC
Second: CCTGTCTA
The “PBM 8-mer E-score” value of the first is lower: -0.261 for the first, -0.122 for the second.

First: CGCAAGTA
Second: AACCGAAC
The “PBM 8-mer E-score” value of the first is higher: 0.195 for the first, 0.0615 for the second.

First: CCGCTCGA
Second: ACAATGGC
The “PBM 8-mer E-score” value of the first is lower: -0.0617 for the first, 0.0275 for the second.

Going from GTACTGAA to CTGGCCGA, the “PBM 8-mer E-score” value falls from -0.0172 to -0.205.

First: CTGGCAGC
Second: ACGCGTCC
The “PBM 8-mer E-score” value of the first is lower: -0.221 for the first, -0.0682 for the second.

Going from AGCATTTA to AGACTTGC, the “PBM 8-mer E-score” value falls from 0.274 to -0.117.

First: CGGATCCC
Second: GACCCGAA
The “PBM 8-mer E-score” value of the first is lower: -0.162 for the first, -0.11 for the second.

Going from CCTAAGGC to ACGTCCCG, the “PBM 8-mer E-score” value rises from -0.273 to -0.241.

First: GATAGGCC
Second: GATTACCC
The “PBM 8-mer E-score” value of the first is lower: -0.175 for the first, -0.034 for the second.

First: CAAAATCG
Second: ACCGCCAT
The “PBM 8-mer E-score” value of the first is higher: 0.105 for the first, 0.00133 for the second.

Compared with AAGCCCAC, CTTCGCCA is higher in “PBM 8-mer E-score” value: -0.27 for the first, -0.192 for the second.

First: CAATCATG
Second: ACCATGCA
The “PBM 8-mer E-score” value of the first is higher: 0.0178 for the first, -0.00695 for the second.

Going from GATTCGCA to CAATCATC, the “PBM 8-mer E-score” value falls from -0.0801 to -0.174.

Going from GCGAGACA to AGTTCTGG, the “PBM 8-mer E-score” value rises from -0.0902 to 0.0672.

First: CACACGCC
Second: AGGCGCAT
The “PBM 8-mer E-score” value of the first is higher: -0.111 for the first, -0.197 for the second.

First: AGTCACGG
Second: CTAATTCC
The “PBM 8-mer E-score” value of the first is lower: -0.187 for the first, 0.121 for the second.

First: GTCTTCTA
Second: CGCTTTGC
The “PBM 8-mer E-score” value of the first is higher: 0.00399 for the first, -0.133 for the second.

Going from AGAAAGGG to GGCTAATA, the “PBM 8-mer E-score” value rises from -0.151 to 0.194.

Compared with CAAGCGCG, CACCTAAA is higher in “PBM 8-mer E-score” value: -0.203 for the first, 0.022 for the second.

Compared with AAGCAGTA, CATGGTCA is lower in “PBM 8-mer E-score” value: 0.0353 for the first, -0.171 for the second.

First: GCGTAGCC
Second: ATCGAGAA
The “PBM 8-mer E-score” value of the first is lower: -0.313 for the first, 0.0884 for the second.

First: AGGAGGTG
Second: ACAAGCTG
The “PBM 8-mer E-score” value of the first is lower: -0.269 for the first, -0.114 for the second.

Going from CGAGATCC to GTACGCAA, the “PBM 8-mer E-score” value rises from -0.0821 to -0.0291.

First: CTGAGGGA
Second: GCAGTTTA
The “PBM 8-mer E-score” value of the first is lower: -0.124 for the first, 0.0494 for the second.

Compared with CTAGCAGA, AATCAAGG is higher in “PBM 8-mer E-score” value: 0.0121 for the first, 0.102 for the second.

Going from CCCGGCAC to CCCAAGTA, the “PBM 8-mer E-score” value rises from -0.177 to 0.0351.

Going from CGCACACG to AGAGTCTA, the “PBM 8-mer E-score” value rises from -0.149 to -0.044.

Compared with GGGACCTA, ATTTAAAA is higher in “PBM 8-mer E-score” value: -0.162 for the first, 0.377 for the second.

Going from GTCAAGAA to ATTGTGAC, the “PBM 8-mer E-score” value rises from -0.0595 to 0.0506.

Going from AAGTGGAA to CAGCCTTA, the “PBM 8-mer E-score” value falls from 0.0613 to -0.0468.

Going from CCCAAACC to CAATAATA, the “PBM 8-mer E-score” value rises from -0.0902 to 0.418.

First: ACTGGGCC
Second: AACGGTGC
The “PBM 8-mer E-score” value of the first is lower: -0.187 for the first, -0.161 for the second.

First: CGAACCTC
Second: AGCTGAAG
The “PBM 8-mer E-score” value of the first is lower: -0.291 for the first, -0.265 for the second.

Compared with AGCACCGC, AACCATAA is higher in “PBM 8-mer E-score” value: -0.183 for the first, 0.179 for the second.

Going from ACCGCACC to TCATTCAA, the “PBM 8-mer E-score” value rises from -0.223 to 0.0307.

First: GGAGTGAA
Second: GTGTCGGA
The “PBM 8-mer E-score” value of the first is lower: -0.186 for the first, -0.0252 for the second.

Going from TAGAAGCA to AGGTGTTG, the “PBM 8-mer E-score” value falls from 0.0326 to 0.0261.

Compared with CTACGTAC, ACGGAACC is higher in “PBM 8-mer E-score” value: -0.0963 for the first, -0.0623 for the second.

First: CTGGTGAA
Second: GACGGTTA
The “PBM 8-mer E-score” value of the first is higher: 0.0656 for the first, -0.0638 for the second.

First: GAATAATA
Second: ACAAGGAT
The “PBM 8-mer E-score” value of the first is higher: 0.446 for the first, 0.0633 for the second.

Going from ATCGGTCA to CATTATCG, the “PBM 8-mer E-score” value falls from 0.0621 to 0.059.

First: CCATCGCC
Second: CACGGTGC
The “PBM 8-mer E-score” value of the first is higher: -0.134 for the first, -0.308 for the second.

First: ACGACCCG
Second: ACGGGGGA
The “PBM 8-mer E-score” value of the first is lower: -0.265 for the first, -0.18 for the second.

Going from CCTATACA to AAAGCGAC, the “PBM 8-mer E-score” value falls from 0.116 to -0.123.

First: ATAAAAAG
Second: GGGAATAA
The “PBM 8-mer E-score” value of the first is higher: 0.348 for the first, 0.206 for the second.

Compared with CTCTGCAC, AAAGCACT is higher in “PBM 8-mer E-score” value: -0.152 for the first, 0.00925 for the second.

Going from AATACGCC to CCGCTATC, the “PBM 8-mer E-score” value falls from 0.106 to -0.176.

First: CGTCCCCA
Second: GGATTTGA
The “PBM 8-mer E-score” value of the first is lower: -0.187 for the first, 0.00759 for the second.

Going from GTCAGTCA to CTGTATAC, the “PBM 8-mer E-score” value rises from -0.12 to 0.215.

Going from GTCACCTA to ACTTAATC, the “PBM 8-mer E-score” value rises from -0.116 to 0.187.

Going from ACGATTGC to GGCATCAC, the “PBM 8-mer E-score” value falls from -0.0272 to -0.0694.

Compared with GGTATCAC, AGGTTTTC is higher in “PBM 8-mer E-score” value: -0.0393 for the first, 0.0141 for the second.

Compared with AGCCTAGG, ACCTTAAA is higher in “PBM 8-mer E-score” value: -0.195 for the first, 0.0626 for the second.

First: AATTCGGT
Second: GTACAGCA
The “PBM 8-mer E-score” value of the first is higher: 0.134 for the first, -0.0583 for the second.

Going from ATACACAT to ACAGATAC, the “PBM 8-mer E-score” value falls from 0.249 to 0.102.

Compared with CTAGGTAC, ACCGAGCT is lower in “PBM 8-mer E-score” value: -0.018 for the first, -0.227 for the second.

Reference: the supplement of paper PMC4466236
